# The full ranking holds about 110,000 compounds; the median of “z-score” is about -0.1, and the highest 2% start at about 2. Some of the results follow.
# Molecular target: Metabotropic glutamate receptor 8 (Rattus norvegicus) (UniProt P70579)
# Experiment: mGluR8 Gi/Go-coupled signaling modulation – cell-based, rat, thallium flux, HTS, primary screen (AID 488969)
# Settings: HEK293 rat mGluR8, GIRK (G protein-gated inwardly rectifying potassium channel) thallium flux, FluoZin2; at 10 µM; stronger effect = higher value; submaximal glutamate (EC20) added with thallium
# UniProt P70579, sequence (P70579 whole entry, looked up): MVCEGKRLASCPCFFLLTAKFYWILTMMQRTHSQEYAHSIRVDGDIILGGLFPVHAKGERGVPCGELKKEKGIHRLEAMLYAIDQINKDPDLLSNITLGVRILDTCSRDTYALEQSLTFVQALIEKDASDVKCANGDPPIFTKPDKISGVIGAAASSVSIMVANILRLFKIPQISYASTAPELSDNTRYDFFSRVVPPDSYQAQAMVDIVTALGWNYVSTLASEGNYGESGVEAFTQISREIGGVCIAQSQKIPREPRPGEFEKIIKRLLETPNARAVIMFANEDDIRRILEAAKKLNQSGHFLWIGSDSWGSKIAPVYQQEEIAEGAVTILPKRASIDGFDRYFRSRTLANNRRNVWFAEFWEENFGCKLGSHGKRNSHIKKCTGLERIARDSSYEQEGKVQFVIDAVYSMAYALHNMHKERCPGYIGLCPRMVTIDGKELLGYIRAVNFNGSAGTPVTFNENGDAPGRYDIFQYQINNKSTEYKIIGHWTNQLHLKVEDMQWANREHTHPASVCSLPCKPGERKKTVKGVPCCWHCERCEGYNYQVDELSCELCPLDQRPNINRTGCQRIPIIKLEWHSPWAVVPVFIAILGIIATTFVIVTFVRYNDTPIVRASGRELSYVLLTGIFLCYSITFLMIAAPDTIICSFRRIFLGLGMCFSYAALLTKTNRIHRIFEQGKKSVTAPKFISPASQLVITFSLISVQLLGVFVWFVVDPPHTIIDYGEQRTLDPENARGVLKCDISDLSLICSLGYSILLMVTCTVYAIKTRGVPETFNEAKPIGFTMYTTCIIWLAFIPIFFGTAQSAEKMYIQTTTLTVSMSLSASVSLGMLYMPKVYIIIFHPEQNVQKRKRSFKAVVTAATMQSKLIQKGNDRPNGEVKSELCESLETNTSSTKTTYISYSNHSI
row,Compound,z-score
1,COc1ccccc1Oc1ccccc1C(=O)O,0.0102
2,CCCCCCN1CC(C(=O)OCC)C(=O)C1=O (configuration not stated),-0.114
3,c1ccc2c(c1)oc1c(NCCCn3ccnc3)ncnc12,-0.0789
4,COc1ccc(CCNC(=O)Cn2cc(C(F)(F)F)cc(Cl)c2=O)cc1OC,-0.175
5,O=C(CCNS(=O)(=O)c1cccc2nsnc12)Nc1ccc2c(c1)OCCO2,-1.18
6,O=C(Nc1ccc2c(c1)CCC2)C1COc2ccccc2O1 (configuration not stated),0.9
7,Cc1cc(NC(=O)CN2CCN(S(=O)(=O)c3ccc(Cl)cc3)CC2)no1,0.194
8,CCCCNC(=O)CCn1c(=O)c2ccccc2n(Cc2cc(C)ccc2C)c1=O,-0.588
9,CN1C(=S)SC(/[N+]([O-])=C\c2cccs2)C1(C)C (configuration not stated),-0.0661
10,COC(=O)NCCOc1cc(C)ccc1C,0.661
11,Cc1cc(SCC(=O)c2cccs2)n2nc(C)c(-c3ccccc3)c2n1,-0.14
12,Cc1[nH]c2ccccc2c1CC(=O)O,-0.275
13,COc1ccc(N2CCN(C(c3cccs3)C(C)NC(=O)c3ccco3)CC2)cc1 (configuration not stated),-0.0565
14,CC(C)c1ccc(/C=N/n2nnnc2Nc2ccccc2)cc1,-0.0719
15,CC(C)NC(=O)NC(=O)COC(=O)c1ccc(OC(F)(F)F)cc1,-0.107
16,Cc1cc(OC(=O)N2CCCCC2)cc(C)c1Cl,-0.184
17,COc1ccc(NC(=O)c2cc(-c3cccnc3)nc3c(C)c(C)ccc23)c(OC)c1,-0.0817
18,CCc1cccc2c(C(=O)COC(=O)c3ccc(O)cc3)c[nH]c12,-0.12
19,Cc1ccc(-n2c(C)cc(C(=O)COc3cccnc3[N+](=O)[O-])c2C)cc1,-0.132
20,Cc1cc(=O)[nH]c(=S)n1-c1ccccc1,-0.0166
21,Cc1ccc(CSc2nc3ccncc3[nH]2)cc1,2.46
22,CC1=NN(c2ccccc2)C(=O)/C1=C/c1cc2cc(C)ccc2nc1N1CCCCC1,-0.251
23,Cc1ccccc1C(=O)N1CCCN(C(=O)c2ccccc2C)CC1,0.249

row,Compound,z-score
1,Cc1ccc(N2CC(C(=O)N3CCc4ccccc4C3)CC2=O)cc1 (configuration not stated),-0.35
2,CC(C)N(C(=O)CSc1nnc(NC(=O)C2CCC2)s1)C(C)C,0.0659
3,CCc1c(C(=O)Nc2cc(C)ccc2OC)[nH]c(C)c1C(C)=O,-0.151
4,O=[N+]([O-])c1cccc(/C=N/n2cnnc2)c1O,0.0535
5,Cc1ccc(OCC(=O)Nc2cc(S(=O)(=O)N3CCCCC3)ccc2C)c([N+](=O)[O-])n1,-0.377
6,O=C(Nc1nc(-c2ccccc2)cs1)C1c2ccccc2Oc2ccccc21,0.57
7,Cc1cc(C)n(-c2nc3c(c(=O)[nH]c(=O)n3C)n2CC(O)COc2ccccc2)n1 (configuration not stated),-0.429
8,Cc1cc(Cl)c(S(=O)(=O)N2CCN(c3cccc(C)c3C)CC2)cc1OCC(N)=O,0.0105
9,Cc1ccc2cc(CN(Cc3ccco3)C(=O)c3ccccc3)c(=O)[nH]c2c1C,-0.385
10,CNc1nc2c(c(=O)n(C)c(=O)n2C)n1Cc1ccccc1,0.359
11,CCc1ccc(N2C(=O)c3ccc4c5c(ccc(c35)C2=O)CC4)cc1,-0.587
12,Cn1c(N2CCC(C(N)=O)CC2)nc2c1c(=O)n(Cc1ccc(Br)cc1)c(=O)n2C,-0.445
13,Cc1ccc(S(=O)(=O)N2CC=C(c3ccc(F)cc3)CC2)cc1,-0.212
14,O=C(Cc1cccs1)N1CCCC(c2nc3c(nnn3Cc3ccc(F)cc3)c(=O)[nH]2)C1 (configuration not stated),-0.894
15,Cc1noc(/C=C/N(C)C)c1S(=O)(=O)N1CCCC(C(=O)NCc2ccc(F)cc2)C1 (configuration not stated),2.21
16,CC(C)CC(=O)NN1CCCCC1,-0.14
17,CC(=O)c1cccc(N(CC(=O)Nc2ccc(F)cc2)S(C)(=O)=O)c1,2.52
18,CSc1cccc(NC(=O)CCCOc2ccc(Cl)cc2C)c1,-0.0465
19,O=C(Nc1ccc(N2CCN(C(=O)c3cccs3)CC2)c(Cl)c1)c1ccco1,0.00632
20,O=C(N/N=C/C=C\c1ccccc1[N+](=O)[O-])c1cccs1,-0.399
21,O=[N+]([O-])c1ccc2nccn2c1,0.437
22,COc1ccc(-n2c(C)cc(C(=O)CN3C(=O)c4ccccc4C3=O)c2C)cc1,0.595
23,Cc1onc(-c2ccccc2)c1C(=O)Nc1ccccc1C#N,0.156

row,Compound,z-score
1,O=C(O)C1CCCN(S(=O)(=O)c2cccs2)C1 (configuration not stated),-0.00858
2,CCCCc1nc2ccccc2n1CC(=O)NN,-0.259
3,Cn1cnnc1SCC(=O)c1ccc(OC(F)F)cc1,0.0243
4,COc1ccc(-c2nc(C#N)c(NCCCn3ccnc3)o2)cc1OC,-0.216
5,O=C(COC(=O)c1ccccc1Nc1ccccc1)c1ccccc1,0.203
6,C=CCOc1ccc(Cl)cc1C(=O)O,0.196
7,O=C(NCCN1CCCCC1)Nc1ccc(F)c(Cl)c1,0.39
8,COc1ccc(-c2nnc3sc(COc4ccc(C)cc4)nn23)cc1,-0.0659
9,O=C(CC1C(=O)N(c2ccc(F)cc2)C(=O)N1Cc1ccccn1)Nc1ccccc1 (configuration not stated),0.264
10,Cc1ccc(C(C)C)c(OCC(=O)Nn2c(=O)[nH]c3ccccc3c2=O)c1,0.279
11,Cc1ccc(NC(=O)COC(=O)CCNS(=O)(=O)c2ccc(C)c(C)c2)cc1,-0.0448
12,COCCN=c1scc(-c2cccs2)n1/N=C/c1ccc(O)c(O)c1O,2.93
13,Cc1cc(NC(=O)CSc2cn(CCNC(=O)c3ccc(F)cc3)c3ccccc23)no1,-0.942
14,CC(C)N1CCN(c2ccncc2S(=O)(=O)N2CCOCC2)CC1,-0.0279
15,Cc1ccc(CSc2nc3c(c(N(C)C)n2)CCCC3)cc1,-0.259
16,CCOc1cc(CO)c(Br)cc1OCC(=O)O,-0.27
17,O=C1Nc2ccc(F)cc2C12Nc1ccccc1-c1nnc(SCc3ccccc3Cl)nc1O2 (configuration not stated),-0.267
18,Cc1nc(SCC(=O)Nc2c(C)n(C)n(-c3ccccc3)c2=O)n[nH]1,-0.356
19,CCCn1nnc(NC(=O)COc2cc(C)ccc2C(C)C)n1,2.14
20,CCOC(=O)COc1c(Br)cc(C2NC(=O)NC(C)=C2C(C)=O)cc1OC (configuration not stated),1.29
21,CCOC(=O)c1c(C)c(C(=O)NCCN2CCOCC2)c(C)n1CC,-0.0665
22,CSc1ccccc1-c1nnc(-c2ccc(C)cc2)o1,-0.132
23,COc1ccc(N=Cc2ccc[nH]2)cc1,0.124

row,Compound,z-score
1,COc1ccc(S(=O)(=O)N(C)C2CCS(=O)(=O)C2)cc1OC (configuration not stated),-0.098
2,COc1ccc2c(c1)N(C(=O)CSc1n[nH]c(C)n1)C(C)(C)C=C2C,-0.194
3,Cc1ccc(N(C(=O)Cn2nnc(-c3ccc(F)cc3)n2)C(CC(C)C)C(=O)NCC2CCCO2)cc1 (configuration not stated),-0.262
4,CCSc1ncnc2c(C#N)c3n(c12)CCCCC3,-0.627
5,COc1ccc(OC)c(C2C(C(N)=O)=C(C)Nc3nc(-c4cccc(Cl)c4)nn32)c1 (configuration not stated),1.16
6,COc1ccc(/C=C/c2nc3ccccc3n2Cc2ccc(OC)c(OC)c2)cc1,-0.737
7,Cc1ccccc1-n1c(Cc2cccs2)n[nH]c1=S,-0.1
8,O=C(NC1CCCC1)C(c1ccc(F)cc1)N(Cc1ccc(Cl)cc1)C(=O)CCl (configuration not stated),-0.114
9,COc1ccc(S(=O)(=O)N(C)CC(=O)N2CCC(C)CC2)cc1Cl,-0.133
10,Cc1ccc(NC(=O)C2CCCN(S(=O)(=O)c3cnc[nH]3)C2)c(Br)c1 (configuration not stated),-0.33
11,COc1ccccc1CN1CCN(C(=O)c2ccncc2)CC1,-0.336
12,CCOc1ccc(N2C(=O)c3cccnc3C2=O)cc1,-0.0144
13,Cc1cc(=O)c2ccccc2n1CC(=O)NCc1ccccc1,-0.147
14,COCCn1c(=NC(=O)c2cc3ccccc3oc2=O)sc2cc(S(N)(=O)=O)ccc21,-0.106
15,S=C(NCCCN1CCOCC1)NCCCN1CCOCC1,-0.101
16,COC(=O)CN(CCc1ccccc1)S(=O)(=O)c1ccc(OC)c(OC)c1,-0.251
17,Cc1csc(N(C)C(=O)CSc2nnc(COc3cccc4ccccc34)o2)n1,0.64
18,Cc1ccc(N(CC(N)=O)C2SC(=O)N(Cc3cccc(C(=O)O)c3)C2=O)cc1 (configuration not stated),0.658
19,CC(C)OC(=O)c1c(N)n(CCCN2CCOCC2)c2nc3ccccc3nc12,-0.444
20,CC(C)Oc1cc2oc(=O)c3c(c2cc1Cl)CCC3,0.087
21,O=C(c1ccco1)[C@@H]1[C@@H]2C(=O)N(c3ccccc3)C(=O)[C@@H]2C2c3ccccc3C=CN21 (some centres not stated),0.151
22,Cc1nc(CNS(=O)(=O)c2cc(F)ccc2F)cs1,0.38
23,CC(C)Oc1ccc2ccccc2c1C=O,-0.494

row,Compound,z-score
1,CCCCCc1c(C)nc(Nc2nc(C)c3cc(OC)ccc3n2)[nH]c1=O,-0.0375
2,CCN(CC)CCNC(=O)c1cn(-c2ccccc2)nc1-c1cccs1,-0.489
3,O=C1CC(c2cccc(F)c2)C2=C(CCCC2=O)N1 (configuration not stated),-0.621
4,Cc1ccccc1-n1c(Cn2c(=O)sc3ccccc32)nnc1SCC(=O)NCC1CCCO1 (configuration not stated),-0.139
5,O=C(COc1ccc(S(=O)(=O)N2CCCC2)cc1)NCCC1=CCCCC1,0.0235
6,Cc1ccc(/C(N)=N/OC(=O)c2ccco2)cc1,-0.0197
7,O=C(COc1ccc(F)cc1)c1ccc2c(c1)CCCC2,-0.307
8,CCc1cc(OCCN2C(=O)NC(C)(C)C2=O)ccc1Cl,-0.278
9,Cc1ccc(NC(=O)C2C3CC4OC(=O)C2C4C3)cc1Cl (configuration not stated),0.462
10,Cc1c(OC(=O)c2ccc([N+](=O)[O-])cc2)c2c(c[n+]1C)COC(C)(C)OC2,0.225
11,Cc1ccsc1C1Nc2ccccc2-c2nc3ccccc3n21 (configuration not stated),-0.965
12,Cc1ccc(CSCC(=O)N/N=C/c2cccc(OC3CSC3)c2)cc1,0.825
13,CCC(C)(c1ccc(C=O)s1)c1ccc(C=O)s1,-0.34
14,CCC1(CC)Cc2ccccc2C(=C(C#N)C#N)N1,-0.603
15,COCCNCc1ccccc1,-0.504
16,CCOC(=O)N1CCN(C(=O)c2cnn3c(C)c(Cc4ccc(C)cc4)c(C)nc23)CC1,-1.58
17,CC1(C)Oc2ccc(NC(=O)C3COc4ccccc4O3)cc2O1 (configuration not stated),-0.379
18,CC(=O)C1=C(O)C(=O)N(CCN(C)C)C1c1ccc(Cl)cc1 (configuration not stated),0.396
19,CC(NC(=O)Nc1ncccn1)(C(F)(F)F)C(F)(F)F,0.179
20,COc1ccc(C(=O)NNC(=O)C(Cc2ccc(O)cc2)NC(=O)c2ccccc2NC(=O)c2ccc(OC)cc2)cc1 (configuration not stated),1.4

# From PubChem BioAssay AID488969 (Vanderbilt High Throughput Screening Facility, 2010)
